Values marked as one replicate rest on one cluster of the flow cell; about a third of the high ones do not repeat.
Tested on: ATP
Assay: switch fluorescence ratio, 500 uM ATP over buffer (Cy3 cluster intensity, sum of 5 cycles each) (fold (ratio)); higher = stronger signal-on switching upon ATP binding; sequences stand for … in TCGTCGGCAGCGTCAGATGTGTATAAGAGACAGTTTTTTTTTTTTTTTTTTTTTTTTT…TC
Details: aptamer strand: ATP DNA aptamer (quencher-CACCTGGGGGAGTATTGCGGAGGAAGG + anchor), 100 nM annealed; ATP concentration: 500 uM; one replicate
In short: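 Cy3-labelled switching-strand clusters on a modified Illumina MiSeq flow-cell were annealed to 100 nM quencher-labelled ATP aptamer and imaged first in selection buffer, then after 15 min with 500 uM ATP at 22 °C. NaOH stripping and re-annealing separated each of five buffer/ATP cycles, and clusters outside 100-1000 RFU were excluded. The fluorescence ratio sums target-cycle Cy3 intensity over buffer-cycle Cy3 intensity per cluster and averages it per switch-domain sequence.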
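Also: ATP exposure 15 min at 22 °C before imaging.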

Sequence | switch fluorescence ratio
CACGCATTCG | 1.09
ACGATCTAAC | 1.09
TATTCCGTTG | 1
TTACCCAAGC | 1.01
AGTGAGAAAA | 0.977
TGTAGCGCTG | 1.01
TCATCATTCA | 1.02
TTCTA | 1.01
ACGAACCGAG | 1.45
CGATCGTAAA | 1
CTCTGCCCGC | 2.01
ATTTCCTCGT | 1.11
CTGACCGCTG | 1.16
GATAGGAGAG | 1.03
CTCCACTATA | 3.77
AGAGTCAGAT | 0.997
TGCTTTGACA | 0.978
TTCTATGAAG | 0.941
CAGCCAACGG | 0.995
TTCAAATCTC | 0.964
TACTCGATCG | 1.01
CGTACGATCG | 1.02
ATTGATTAAT | 0.989

Sequence | switch fluorescence ratio
TGGTTGGCAT | 0.936
GCCAGCCTTG | 0.997
ATTTGACCCG | 1.14
GCAGACGAG | 1.05
GGGTGCACGT | 1.01
TCCAAATAAT | 1.03
AATGCCGTAC | 1.03
CTCACTTACC | 1.29
CTTACATTGG | 1.01
CAGCCAGACT | 1.14
CGATTGCGCT | 1.01
AAACGGAGTT | 0.971
CAGGACGCA | 1.55
AAAGCGAGGC | 1.14
CTGTGGGCGT | 0.973
CAGGGTGAAA | 1.11
ACGGCAAATT | 1.08
GTGAGTTGGT | 1.02
GGGCAGGACG | 0.944
TGTGTTTGCC | 0.959
GCATAAAGTT | 0.97
TTTATCGGCG | 1.02
GGCTGCTTCC | 1.58

Sequence | switch fluorescence ratio
ATTGTTTACG | 0.987
CATTGACCTG | 1.04
TGCGGTAAAT | 2.14
AGATTTAGTG | 0.992
TATATAACCT | 1.08
ATCATATGGG | 1.02
GGCTTTGCCG | 1.03
CGAGACACAA | 0.994
AACAATCATT | 0.991
TCAGGCATAT | 1.01
AGCAAATAT | 1.52
ATGCTGTACG | 0.987
ACGTTGATAG | 1.01
TATACATTGC | 1.03
CCGGTTCCTG | 1.02
TCCCATCGAG | 1
CTTGTGGTTT | 1.02
TCCGCTCACA | 2.34
TGAGGCTCTT | 0.989
TAATAAAGTC | 0.951
CTTTGTTACA | 0.952
ATTTCCAAGG | 1.05
CGCTAGAGGG | 1.09

Sequence | switch fluorescence ratio
AGTGGGGGCA | 0.985
CCGCGTTATA | 2.07
CGAGACCATG | 1.04
GGTATAGCAG | 0.976
AGGTAACGGT | 1.02
AGTCAGGTGG | 1.07
TAGCCGATTG | 0.95
CGGGCTTGAC | 1.01
AAACATTAGT | 1.01
ACTCCCTTTT | 1.23
ATCATAGTTA | 0.967
GGTCGGCGGT | 0.981
GGAAATTAAT | 0.975
GCGTAGTCTT | 1.01
ATTTTATCTG | 0.973
TGCGGCAAAG | 1.4
TATAGGCAA | 1.06
GCGGGCCACT | 1.01
AGAAAGTTTC | 0.979
CGCAAGGGA | 3.49
TAATATAATC | 1.02
GCGTAAGGAC | 1.1
GACGCAACT | 3.52

Sequence | switch fluorescence ratio
TTCCTCCTGT | 1.01
GTCGGAAATA | 0.957
CGAGAGCGAG | 1.05
TACTTGGTTT | 0.987
AAAAGTCGCA | 1.03
ATGACAGGCG | 1.03
TTTACGCAGG | 1.06
TGTTGTGAGC | 1.01
CTGTACAAAT | 0.983
CATTCCAGGC | 1.08
GAGGGCTCCC | 0.983
GCGATCAGGA | 0.98
ATCCGTAGA | 1.09
GTTTCATTTG | 0.987
CATTCACCGA | 1.04
TACTGGGCGC | 0.981
CTCGAGGGAC | 1.08
CGAGTAGTCG | 1.07
AATTCCTCGC | 2.94
AACGAATTGG | 1.01
AGGATCGCGG | 1.06
GATGGTTCCG | 0.979
ATTCTGAG | 1.01

Sequence | switch fluorescence ratio
GAGCATTGTG | 0.965
ATGTCACTTA | 1.07
CAGTTGTATC | 1.01
ACGATTTACC | 1.17
TTCGCATTGC | 1.38
AGTTGATCGG | 1.01
AATCTGGTG | 1.1
GCGGCACTGG | 1.06
TTAGAAATCG | 0.959
AGAGCGGTCT | 1.07
GATTCATTT | 1
TATAAGTTTC | 0.963
CATCTGAATT | 1.03
CAAGGAGAG | 0.979
ATCGATTTA | 0.968
AAGCCATCTA | 1.03
TATAAGAAGG | 0.979
GTACTACCAA | 1.11
CAGACATTTC | 1.02
TGAGAACGAT | 1
GCACGGAATC | 1.56
TTAATCTCT | 0.976
CCAGTGGCCA | 0.982

Sequence | switch fluorescence ratio
ATGCGATGT | 0.99
GTTGTTTATT | 1.03
TTCGGAAACG | 0.947
CGGGATAAGT | 1.01
GACAACAG | 1.02
GAGGAAGAGT | 0.973
GGGGTCACG | 0.999
GAGCGGAGCA | 0.99
TCGGACCCT | 1.06
AGCTGAATAT | 0.984
ATCGCTGTGA | 1.02
ACTGGATGT | 1.01
GTATAGGTAT | 1.01
TAAACTTTGA | 1.06
TATGTATTGA | 1.02
GGACGCGCTG | 0.966
TAGGTTTATG | 0.984
GCACCAGCTG | 1.06
AGCTGAGAGT | 0.972
AACTGCGTAA | 1.29
